Data taken from PubChem BioAssay AID1508642 (National Center for Advancing Translational Sciences (NCATS), 2021).
Among all 43,000 compounds or so, about 200 (0.47%) were called active. Inconclusive means that the source gave no clear call. Such entries were picked first, then a sample of the others. Calls come from the whole dose curve; as a rule, active = well fitted cell-killing curve with a large enough effect; inconclusive = small, poorly fitted or top-dose-only effect, or effect the other way; inactive = flat fitted curve, though single readings scatter. Potencies of inconclusive entries are doubtful fits and often do not repeat.

Assay: Cell viability qHTS assay in S16 Pmp22-F2sN cells; note: nearly all actives have a fitted effect of over 65% in size
Details: S16 Pmp22-F2sN Schwann cells (luciferase reporters placed in the Pmp22 gene) viability, CellTiter-Glo, 24 h; activity change, negative = cytotoxicity: at 57.5 µM (top of the series)
Summary of the method: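 S16 Schwann cells carrying the Pmp22-F2sN reporter, seeded in 1536-well format, were exposed to library compounds for 24 h at 37C. Viability was read as CellTiter-Glo luminescence after 15 min at room temperature.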
% is set by controls: 0 for no effect and ±100 for the full control effect; potency is the fitted concentration of half-maximal effect; tags give direction and shape of the fitted curve.

Row | SMILES | Potency | activity change, negative = cytotoxicity
1 | CC(=O)Nc1cccc(-n2cc3c(c2-c2ccccc2Cl)c(=O)n(C)c(=O)n3C)c1 | inconclusive: 17.8 µM [cytotoxic, partial curve, poor fit] | –
2 | Cc1cccc(C2CC(=O)Nc3cc4c(cc32)OCO4)c1 (centres undefined) | – | inactive: -3.89%
3 | Cc1cc2ccccc2n1CCNC(=O)c1ccc(Br)cc1 | inconclusive: 4.47 µM [rising, full curve] | –
4 | C=C(C)CSc1nc(-c2ccccc2)cc(-c2ccc(OC)cc2)c1C#N | – | inactive: 18.6%
5 | CN1CCN(c2ncc3c(n2)CCN(Cc2ccc(Br)s2)C3)CC1 | – | inactive: 0.496%
6 | O=C(c1ccc2c(c1)N(Cc1cccc(F)c1)C(=O)c1ccccc1S2)N1CCCC1 | – | inactive: -8.27%
7 | Cn1nnnc1SCCNCc1cc(Br)ccc1OCc1ccccc1Cl | inconclusive: 10 µM [cytotoxic, partial curve, poor fit] | –
8 | CCOc1ccc(NS(=O)(=O)c2ccc3[nH]c4c(c3c2)CCCCC4)cc1 | inconclusive: 8.91 µM [cytotoxic, full curve, poor fit] | –
9 | Cc1cccc(CCNC(=O)c2cc3c(=O)n(C)c4ccccc4c3n2C)c1 | inconclusive: 25.1 µM [rising, single point] | –
10 | O=C(CN1C(=O)CCn2nc(-c3ccccc3)cc21)NCc1ccc(Cl)cc1 | – | inactive: -9.8%
11 | O=C(c1ccc(F)cc1)N1CCC(c2nc3ccccc3s2)CC1 | – | inactive: -26.2%
12 | Cc1c(C(=O)Nc2ccc(F)c(C(F)(F)F)c2)sc2nc(-c3ccccc3)cn12 | inconclusive: 28.2 µM [cytotoxic, single point] | –
13 | CC1=C(C(=O)Nc2cc(Cl)ccc2C)C(c2sccc2C)n2ncnc2N1 (centres undefined) | – | inactive: 11.6%
14 | Cc1ccc(Cl)cc1N1CCN(C(=O)CSc2cc(=O)n(C)c3ccccc23)CC1 | inconclusive: 20 µM [cytotoxic, partial curve] | –
15 | CSc1ncc(C(=O)NCc2ccc(C)cc2)c(C)n1 | – | inactive: -0.163%
16 | O=C(CSc1cn(CCNC(=O)c2cccc(C(F)(F)F)c2)c2ccccc12)Nc1ccc2c(c1)OCCO2 | inconclusive: 39.8 µM [cytotoxic, single point] | –
17 | O=C(Nc1nc2ccc(F)cc2s1)c1nc(S(=O)(=O)Cc2ccccc2F)ncc1Cl | inconclusive: 25.1 µM [cytotoxic, single point] | –
18 | CC(C)(C)c1ccc(OCC(=O)NCC2(N3CCOCC3)CCCCC2)cc1 | inconclusive: 25.1 µM [cytotoxic, partial curve] | –
19 | Cc1ccc(C)n1-c1nnc(N2CCCC(C(=O)Nc3ccccc3Br)C2)s1 (centres undefined) | – | inactive: -11.6%
20 | CCOc1ccc(NC(=O)CCCOc2cc(=O)n(C)c3ccccc23)cc1 | inconclusive: 2.82 µM [cytotoxic, full curve, poor fit] | –
21 | CCOc1cc(CNC(=O)c2ccc3nc(C(C)C)oc3c2)cc(OCC)c1OCC | inconclusive: 39.8 µM [cytotoxic, single point] | –
22 | CCS(=O)(=O)c1oc(-c2ccc(F)cc2)nc1S(=O)(=O)c1ccccc1 | active: 3.16 µM | –

Row | SMILES | Potency | activity change, negative = cytotoxicity
23 | O=C(NCCc1ccccc1)c1ccc(Cn2c(SCc3ccccc3F)nc3cccnc32)cc1 | inconclusive: 35.5 µM [cytotoxic, single point] | –
24 | CSc1nc2c(sc3ccccc32)c(=O)n1Cc1ccc(C)cc1 | – | inactive: -11.9%
25 | COc1ccc(C(=O)Nc2cc(-c3nc4ccccc4s3)ccc2OC)cc1 | inconclusive: 28.2 µM [cytotoxic, partial curve] | –
26 | O=C(NCCc1ccc(Cl)cc1)C(=O)NCC(c1cccs1)S(=O)(=O)c1cccs1 (centres undefined) | – | inactive: -1.58%
27 | CCc1ccc2oc(C(=O)NCCc3ccc(OC)c(OC)c3)cc(=O)c2c1 | inconclusive: 39.8 µM [cytotoxic, single point] | –
28 | COc1ccc(S(=O)(=O)Nc2cc(-c3cn4cccc(C)c4n3)ccc2C)cc1C | inconclusive: 31.6 µM [cytotoxic, single point] | –
29 | CCOC(=O)c1cc(-c2ccc(C)cc2)n(CC(=O)Nc2ccc(OC)c(Cl)c2)c1C | inconclusive: 39.8 µM [cytotoxic, single point] | –
30 | CCOc1ccccc1CNC(=O)CSc1n[nH]c(-c2ccccc2Cl)n1 | – | inactive: 0.898%
31 | CCOC(=O)c1ccc(Nc2nc(C(=O)OCC)nc3ccccc23)cc1 | – | inactive: 22.6%
32 | CCN(CC)c1ccc(C(=O)N2CCC(c3ccncc3)CC2)cc1 | inconclusive: 35.5 µM [cytotoxic, single point] | –
33 | CCc1ccc(S(=O)(=O)c2cn(C)c3cc(OC)c(OC)cc3c2=O)cc1 | inconclusive: 39.8 µM [cytotoxic, partial curve, poor fit] | –
34 | COc1ccc(NCc2nc3ccccc3n2CCOc2ccc(C)cc2)cc1 | inconclusive: 39.8 µM [cytotoxic, single point] | –
35 | Cc1c(CCNS(=O)(=O)c2ccccc2)sc2nc(-c3ccc(Cl)cc3)nn12 | inconclusive: 39.8 µM [cytotoxic, partial curve, poor fit] | –
36 | Cc1ccc(NCc2nc3ccccc3n2CCOc2ccccc2C)cc1 | inconclusive: 39.8 µM [cytotoxic, partial curve, poor fit] | –
37 | CCN1C(=O)c2ccccc2Sc2ccc(NC(=O)Nc3ccc(C(C)=O)cc3)cc21 | inconclusive: 28.2 µM [cytotoxic, single point] | –
38 | CC1CCCCN1C(=O)CSc1nc2ccccc2nc1Cc1ccc(Cl)cc1 (centres undefined) | inconclusive: 31.6 µM [cytotoxic, single point] | –
39 | COc1ccc(NC(=O)C(C)n2nc(C)c3c(C)n(-c4ccccc4)nc3c2=O)cc1Cl (centres undefined) | inconclusive: 22.4 µM [cytotoxic, single point] | –
40 | COc1ccc(N2CCN(C(=O)c3cccn4c(=O)c5ccc(Cl)cc5nc34)CC2)cc1 | inconclusive: 2.51 µM [cytotoxic, partial curve, poor fit] | –
41 | Oc1cccc(Nc2nc(-c3ccccc3)nc3ccccc23)c1 | inconclusive: 39.8 µM [cytotoxic, single point] | –
42 | CC1(C)C(=O)N(CC(=O)Nc2ccc(OC(F)(F)F)cc2)c2ccccc21 | inconclusive: 22.4 µM [cytotoxic, single point] | –
43 | Cc1cc(NC(=O)c2ccc(Cl)c(Cl)c2)ccc1-c1cc2ccccc2oc1=O | inconclusive: 39.8 µM [cytotoxic, single point] | –
44 | CCOC(=O)c1c(C)[nH]c(C)c1S(=O)(=O)N(C)CC(=O)Nc1cc(Cl)ccc1OC | – | inconclusive: -40.8% [cytotoxic]

Row | SMILES | Potency | activity change, negative = cytotoxicity
45 | O=C(CSC1=Nc2ccccc2C2=NC(CCC(=O)NC3CCCCC3)C(=O)N12)Nc1cccc(Cl)c1 (centres undefined) | inconclusive: 31.6 µM [cytotoxic, single point] | –
46 | CCOc1ccc(NC(=O)CSc2oc(-c3cccs3)nc2S(=O)(=O)c2ccc(Cl)cc2)cc1 | inconclusive: 31.6 µM [cytotoxic, single point] | –
47 | COc1cccc(/C=C(\C#N)c2nc3ccc(C)cc3[nH]2)c1 | inconclusive: 35.5 µM [cytotoxic, single point] | –
48 | CCOC(=O)c1c(C)[nH]c(CCC(=O)Nc2ccc(N(CC)CC)cc2C)c1C | inconclusive: 39.8 µM [cytotoxic, single point] | –
49 | Cc1ccc(S(=O)(=O)N(Cc2nc(-c3ccc(Cl)cc3)no2)C2CCCCC2)cc1 | inconclusive: 39.8 µM [cytotoxic, single point] | –
50 | Cc1ccc(C)c(N2CCN(C(=O)C3CCN(Cc4nc(-c5cccc(Cl)c5)oc4C)CC3)CC2)c1 | inconclusive: 39.8 µM [cytotoxic, single point] | –
51 | COc1ccc(/C=C/C(=O)Nc2ccc(Cl)c(Cl)c2)cc1OC | inconclusive: 39.8 µM [cytotoxic, single point] | –
52 | O=C(Cn1c(=O)oc2cc(S(=O)(=O)NCc3ccccc3)ccc21)NCc1ccc(F)cc1 | – | inactive: -1.11%
53 | CCCCc1nn2c(=O)cc(COC(=O)CNC(=O)c3ccccc3C)nc2s1 | inconclusive: 39.8 µM [cytotoxic, single point] | –
54 | Cc1cccc(OCC(=O)NCc2ccc3c(c2)CCN3C(=O)c2ccccc2)c1 | inconclusive: 28.2 µM [cytotoxic, single point] | –
55 | CC(=O)N1c2ccc(S(=O)(=O)NCC3CCC(C(=O)Nc4ccc(F)cc4)CC3)cc2CC1C (centres undefined) | active: 14.1 µM | –
56 | COc1cc2nc(SCC(=O)Nc3cccc(C)c3)n3nc(CCn4c(C)nc5ccccc54)nc3c2cc1OC | inconclusive: 2.24 µM [cytotoxic, full curve] | –
57 | O=C1c2[nH]nc(-c3ccccc3O)c2C(c2ccc(Cl)cc2)N1CCc1ccccc1 (centres undefined) | – | inactive: -26.9%
58 | CCc1ccc(NC(=O)N(Cc2cn(CC)c3ccccc23)C2CCCCC2)cc1 | inconclusive: 39.8 µM [cytotoxic, single point] | –
59 | CC(C)c1ccc(/C=C(\C#N)c2nc(-c3cc4ccccc4oc3=O)cs2)cc1 | inconclusive: 28.2 µM [rising, partial curve, poor fit] | –
60 | CC1CCN(S(=O)(=O)c2ccc3nc(Nc4cccc(C(F)(F)F)c4)ccc3c2)CC1 | inconclusive: 39.8 µM [cytotoxic, single point] | –
61 | Cc1ccc(CNC(=O)c2nc(S(=O)(=O)Cc3ccc(C)cc3)ncc2Cl)cc1 | inconclusive: 28.2 µM [cytotoxic, single point] | –
62 | O=C(NCc1ccccc1)N1CCc2c(sc3c2CCCC3)C1c1ccccc1 (centres undefined) | inconclusive: 14.1 µM [cytotoxic, partial curve] | –
63 | COc1ccccc1CNC(=O)c1ccc(Nc2nc3ccccc3n3nnnc23)cc1 | inconclusive: 7.94 µM [cytotoxic, partial curve, poor fit] | –
64 | CCOc1ccc(/C=C/c2nc3ccccc3n2S(=O)(=O)c2cccc(Cl)c2)cc1 | inconclusive: 15.8 µM [cytotoxic, partial curve, poor fit] | –
